Results from PubChem BioAssay AID1794762 (DTP/NCI, 2022).
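Activity criterion: percent growth below 10, measured after cells in 96-well plates were exposed to a single compound concentration for 48 hours.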 A number of entries come with more than one value. This is not the full list of results. An entry can have further records. This drug was run again and again over the years, at its own concentration, as given; one value stands for one run. Additions like (4×) count equal records among those shown.

System: M19-MEL melanoma
Experiment: NCI-60 one-dose screen, 48 h (100 = growth as untreated, 0 = no growth, -100 = all killed)
Details: 2.5 mM
Experimental: Growth inhibition of the M19-MEL human tumor cell line is measured as a screen for anti-cancer activity. Cells are grown in 96 well plates and exposed to the test compound for 48 hours. Compounds are tested at a single concentration, which is 10^-5 M for most compounds. The reported endpoint is percent growth (GI% or GIPRCNT), where numbers from 0 - 100% represent growth inhibition, and numbers from -100% - 0 represent cell death. For example, a value of 40 represents 60% growth inhibition. A value of 0 means no net growth occurred over the course of the experiment. A value of -40 indicates 40% of cells at the beginning of the experiment died by the end of the experiment. A value of -100 means all cells are dead at the end of the experiment.
NCI-60 Human Tumor Cell Lines Screen was performed using the standard one-dose NCI protocol, which is described in more detail at https://dtp.cancer.gov/discovery_development/nci-60/default.htm.
Compounds with GIPRCNT values below 10 were considered active. Activity score was based on GIPRCNT using the following formula: […]
Score is 0 for GIPRCNT values of 100 or above, 50 for GIPRCNT values of 0, and 100 for GIPRCNT values of -100.

O=c1[nH]cc(F)c(=O)[nH]1
growth (runs of 1991): 25, 14.7, 16.9, -40.5, -29.6, 12.9, 16.6, 8.75, 15.3, -16.1% | growth (runs of 1992): 16.7, 26.8 (2×), 23.8, 36.8, 2.61, 3.33, 8.52, 7.54, -8.7, 21.8, 9.52, 12.2, 25.5, 7.79, 8.05, 2.57, -0.457, 18.7, 10.2, 8.62, 3.6, 12.8 (2×), 6.49, 89, 20, 16.9, 22, 17.3, 12.7 (2×), 19.2 (2×), 25.7, 14, 16.4, 4.38, 5.05, 0.635, 17.9, 15.5, 15.6, 11.4 (2×), 6.39, 7.56, 11.2, 8.4, 9.81, 22.1, 2.5, 1.97, 5.72, 4.95, 16.3, 11.1, 17.4, 5.2, 6.91, 3.82, 12.1, 10.6 (2×), 14.1, 12.5, 15.7, 3.89, 4.74, 8.83, 8.89, -5.78, 19.9, 19.3, 6.56, 10.3, 20.7, -19, 5.96, 20.5, 13.7, 9.86, 25.1, 9.59, 15.3, 41.8, 21.4, 6.09, 17, 19.8%
